The source of these data is the supplement of paper PMC9446081.

Among all 39,000 compounds or so, about 220 (0.56%) showed activity. Some of the results follow.
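Note: static incubation at 37 °C against the wild-type strain, values averaged over two biological replicates.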

In this assay the test system is Escherichia coli K-12 BW25113. The experiment in a line: relative growth (OD600 normalised to plate interquartile mean) (fraction); higher = less growth inhibition, active = 0.2 or less. Conditions: 50 µM; LB; incubation time: overnight (16-24 h).
As to `CC1CCC2(C(=O)O)CCC3(C)C(=CCC4C5(C)CCC(O)C(C)(C)C5CCC43C)C2C1C` (stereo not given), the relative growth is inactive: 1.01. The figure for `CC(C)NC(=O)N(C)C[C@H]1Oc2ccc(NS(=O)(=O)c3ccc(F)cc3)cc2C(=O)N([C@@H](C)CO)C[C@@H]1C` is inactive: 0.998; for `C[C@@H]1CCCCO[C@H](CN(C)C(=O)Nc2ccc3c(c2)OCO3)[C@H](C)CN([C@H](C)CO)C(=O)c2cc(NS(=O)(=O)c3ccc(F)cc3)ccc2O1` it is inactive: 0.998; for `CCOc1ccc(S(=O)(=O)[O-])c2cccnc12.[Na+]` it is inactive: 1.1.

On to `COc1ccc(cc1)CN1C[C@]2(CN(C2)S(=O)(=O)c2cn(cn2)C)c2c([nH]c3cc(ccc23)OC)[C@@H]1CO`, for which the relative growth is inactive: 0.995. The same measure for `COCC(=O)NCc1n[nH]c(=O)c2ccccc12`: inactive: 0.968; for `Cc1cc2nc3c(=O)[nH]c(=O)nc-3n(CC(O)C(O)C(O)CO)c2cc1C` (stereo not given): inactive: 0.984. With `O=C(O)c1ccc(N2CCCS2(=O)=O)cc1`, the relative growth is inactive: 1.01. `C[C@H](CO)N1C[C@H](C)[C@@H](CN(C)S(=O)(=O)c2cn(C)cn2)Oc2cc(C3=CCCCC3)ccc2S1(=O)=O`: the relative growth was inactive: 1.

For the compound `C[C@H]1CN([C@@H](C)CO)C(=O)c2cc(NC(=O)C3CCCCC3)ccc2O[C@@H]1CN(C)C(=O)Nc1ccc(C(F)(F)F)cc1`, the relative growth was inactive: 1.02.

In the case of `Nc1ncnc2c1ncn2CCN1CCCCC1`, the relative growth is inactive: 0.998.

As for `Cc1noc(C)c1NC(=O)Nc1ccc2c(c1)CC(=O)N([C@H](C)CO)C[C@H](C)[C@@H](CN(C)Cc1ccc(C(=O)Nc3ccccc3N)cc1)O2`, the relative growth was inactive: 0.943.

Turning to `CN(C)c1n[nH]c(=O)[nH]c1=O`, the relative growth was inactive: 0.959. The same measure for `COCC#Cc1ccc2c(c1)O[C@H](CN(C)C(=O)CN(C)C)[C@@H](C)CN([C@@H](C)CO)S2(=O)=O`: inactive: 0.984; for `C[C@@H]1CCCCO[C@@H](CN(C)S(=O)(=O)c2cccs2)[C@H](C)CN([C@H](C)CO)C(=O)c2cc(NC(=O)Nc3cccc4ccccc34)ccc2O1`: inactive: 1.04; for `C[C@@H]1CN([C@@H](C)CO)C(=O)c2cc(NS(=O)(=O)c3ccccc3)ccc2O[C@@H](C)CCCCO[C@H]1CN(C)Cc1ccc(C(F)(F)F)cc1`: inactive: 0.975. On to `CO[C@@H]1CN(C)C(=O)c2cc(NC(=O)Nc3cccc(F)c3)ccc2OC[C@@H](C)N(C(=O)Nc2c(C)noc2C)C[C@H]1C`, for which the relative growth is inactive: 1.01. The figure for `C[C@@H]1CN([C@H](C)CO)C(=O)c2cc(NS(=O)(=O)c3ccccc3)ccc2O[C@@H]1CN(C)CC1CC1` is inactive: 1. The same measure for `COc1ccccc1S(=O)(=O)N(C)C[C@H]1OCc2cn(nn2)CCCC(=O)N([C@@H](C)CO)C[C@H]1C`: inactive: 1.05; for `C[C@H]1CN([C@@H](C)CO)C(=O)c2cc(NC(=O)Nc3cccc4ccccc34)ccc2O[C@H]1CN(C)S(=O)(=O)c1cccs1`: inactive: 1.01. The figure for `C[C@@H]1CCCCO[C@H](CN(C)S(=O)(=O)c2cccs2)[C@@H](C)CN([C@@H](C)CO)C(=O)c2cc(NC(=O)CCC(F)(F)F)ccc2O1` is inactive: 1.02; for `Cc1noc(C)c1NC(=O)N(C)C[C@@H]1OCCCC[C@@H](C)Oc2ccc(NS(=O)(=O)c3ccccc3)cc2C(=O)N([C@H](C)CO)C[C@@H]1C` it is inactive: 0.971. With `C[C@@H]1CN([C@H](C)CO)C(=O)c2c(c3ccccc3n2C)-c2ccccc2CO[C@@H]1CN(C)Cc1cccc(F)c1`, the relative growth is inactive: 1. The figure for `COc1ccc(NC(=O)N(C)C[C@@H]2OCCCC[C@@H](C)Oc3ccc(NC(=O)Nc4c(C)noc4C)cc3C(=O)N([C@H](C)CO)C[C@H]2C)cc1` is inactive: 0.982; for `C[C@@H]1CN([C@H](C)CO)C(=O)c2cc(NS(=O)(=O)c3ccc(F)cc3)ccc2O[C@@H](C)CCCCO[C@@H]1CN(C)Cc1ccc(C(=O)O)cc1` it is inactive: 1; for `C[C@@H]1CN([C@@H](C)CO)C(=O)c2cccc(NS(=O)(=O)c3cn(C)cn3)c2O[C@@H]1CN(C)S(=O)(=O)c1ccccc1` it is inactive: 0.975. The same measure for `Cc1noc(C)c1S(=O)(=O)Nc1ccc2c(c1)C(=O)N([C@H](C)CO)C[C@@H](C)[C@@H](CN(C)Cc1ccc(C(F)(F)F)cc1)OCCCC[C@H](C)O2`: inactive: 1.07.

For the compound `C[C@@H]1CCCCO[C@H](CN(C)S(=O)(=O)c2ccc(Cl)cc2)[C@@H](C)CN([C@H](C)CO)C(=O)c2cc(NC(=O)Nc3ccccc3)ccc2O1`, the relative growth is inactive: 1.01.

Turning to `C[C@H](CO)N1C[C@H](C)[C@H](CN(C)Cc2ccc3c(c2)OCO3)Oc2ccc(NS(C)(=O)=O)cc2CC1=O`, the relative growth was inactive: 0.978.

Consider `CC(=O)N1C[C@H](O)C[C@H]1C(=O)O`, for which the relative growth is inactive: 0.947. With `C[S+](C)CC[C@H](N)C(=O)O`, the relative growth was inactive: 1.01.

On to `C[C@H](CO)N1C[C@H](C)[C@@H](CN(C)S(=O)(=O)c2ccc(F)cc2)Oc2ccc(NC(=O)Cn3cnnn3)cc2CC1=O`, for which the relative growth was inactive: 1. The figure for `O=C(N[C@@H]1C=C[C@H](CC(=O)N2CCOCC2)O[C@@H]1CO)c1ccc2c(c1)OCO2` is inactive: 0.992.

Consider `C[C@H]1CN([C@@H](C)CO)C(=O)Cc2cc(NC(=O)Nc3cccc4ccccc34)ccc2O[C@@H]1CN(C)Cc1ccc(Cl)c(Cl)c1`, for which the relative growth is inactive: 0.996. Consider `O=C1N[C@H](Cc2c[nH]c3ccccc23)COC(=O)[C@@H](Cc2ccc(F)cc2)CC=CC[C@H]1CC(=O)N(CCO)Cc1ccccc1`, for which the relative growth was inactive: 1.01. The figure for `C[C@@H]1CN([C@@H](C)CO)C(=O)Cc2cc(NC(=O)C3CC3)ccc2O[C@H]1CN(C)C(=O)Nc1ccccc1` is inactive: 0.965; for `C[C@H]1CN([C@@H](C)CO)C(=O)c2cc(NS(=O)(=O)c3cn(C)cn3)ccc2O[C@@H]1CN(C)CC1CC1` it is inactive: 0.974; for `COc1ccc(S(=O)(=O)N(C)C[C@H]2Oc3ccc(NS(=O)(=O)c4cn(C)cn4)cc3C(=O)N([C@@H](C)CO)C[C@@H]2C)cc1` it is inactive: 0.965. The figure for `CS(=O)(=O)c1ccc(C(O)C(CF)NC(=O)C(Cl)Cl)cc1` (stereo not given) is active: 0.0463; for `C[C@@H]1CCCCO[C@H](CN(C)Cc2ccc(C(F)(F)F)cc2)[C@H](C)CN([C@@H](C)CO)C(=O)c2cc(NS(=O)(=O)c3ccc(Cl)cc3)ccc2O1` it is inactive: 1.03.
